Test results published in the supplement of paper PMC3334620.
Whole data set: some 33,000 sequences, median “E-score (-0.5 to 0.5)” near -0.035, cut for the highest 2% near 0.35. The list shows a part of the results.

Target: T1, Pdr3 (UniProt P33200)
T1 sequence: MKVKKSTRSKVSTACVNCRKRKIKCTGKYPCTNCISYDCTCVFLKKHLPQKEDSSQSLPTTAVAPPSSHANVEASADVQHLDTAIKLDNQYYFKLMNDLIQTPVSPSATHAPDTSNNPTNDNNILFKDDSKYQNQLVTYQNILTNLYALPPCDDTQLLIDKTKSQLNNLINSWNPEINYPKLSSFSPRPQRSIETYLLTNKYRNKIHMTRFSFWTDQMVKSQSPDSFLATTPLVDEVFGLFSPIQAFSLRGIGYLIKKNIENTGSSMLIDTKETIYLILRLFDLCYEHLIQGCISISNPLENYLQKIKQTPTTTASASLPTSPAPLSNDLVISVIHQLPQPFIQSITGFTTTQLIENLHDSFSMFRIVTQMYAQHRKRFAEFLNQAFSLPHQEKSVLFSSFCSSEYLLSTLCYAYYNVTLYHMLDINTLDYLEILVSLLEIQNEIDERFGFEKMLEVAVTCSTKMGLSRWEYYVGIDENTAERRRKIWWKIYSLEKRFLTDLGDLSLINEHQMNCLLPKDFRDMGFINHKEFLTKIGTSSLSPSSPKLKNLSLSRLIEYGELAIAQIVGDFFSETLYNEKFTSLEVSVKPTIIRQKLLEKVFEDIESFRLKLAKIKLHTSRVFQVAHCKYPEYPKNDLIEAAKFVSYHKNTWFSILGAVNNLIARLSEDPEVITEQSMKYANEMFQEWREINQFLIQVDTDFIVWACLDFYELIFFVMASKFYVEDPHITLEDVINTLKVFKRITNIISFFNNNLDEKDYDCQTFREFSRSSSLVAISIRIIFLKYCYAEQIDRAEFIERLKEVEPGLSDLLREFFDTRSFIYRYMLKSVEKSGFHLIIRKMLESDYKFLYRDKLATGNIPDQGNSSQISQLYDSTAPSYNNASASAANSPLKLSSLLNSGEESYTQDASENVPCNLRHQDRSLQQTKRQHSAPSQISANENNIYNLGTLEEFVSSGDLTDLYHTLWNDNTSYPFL
Assay: PBM E-score (8-mer binding enrichment) (E-score (-0.5 to 0.5)); higher = stronger / more preferred TF binding; most listed sequences are background and not binding sites
Conditions: protein concentration: 200 nM; construct: GST-full length
Description: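 Universal 'all 10-mer' protein binding microarrays (Agilent AMADID 015681) probed with GST-tagged S. cerevisiae TFs (full-length or DBD) made by in vitro transcription/translation (PURExpress), about 100-200 nM. Bound TF was detected with fluorescent anti-GST. Each ungapped 8-mer (which stands for itself and its reverse complement) is scored by the PBM enrichment score (E-score), a modified Wilcoxon-Mann-Whitney statistic from -0.5 to +0.5, computed with the Universal PBM Analysis Suite. Scale: above 0.35 generally sequence-specific binding.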

In order of rising “PBM E-score” value:
1. ACTCCCTA  -0.356
2. GTTAGGCA  -0.298
3. AGCTAGAG  -0.286
4. CTAGAGAC  -0.246
5. TTAGGCAA  -0.235
6. TGACTGAA  -0.233
7. ACCCCTCT  -0.22
8. TAACTATA  -0.217
9. AATTACAA  -0.215
10. AACTAGAG  -0.2
11. CATCTGGG  -0.198
12. ATCACTCA  -0.194
13. ACAATCTA  -0.19
14. GACTAGCA  -0.185
15. GTCGTCGA  -0.182
16. AGTACGCC  -0.181
17. GACTCGCC  -0.177
18. AACATAAA  -0.163
19. ACTAGAGG  -0.161
20. ACTCCTTC  -0.152
21. CACATCAG  -0.151
22. CCTACCGA  -0.15
23. AGCAGAGA  -0.137
24. GCGTATTA  -0.134
25. GGCAAGCC  -0.132
26. AAAGGGTG  -0.127
27. CTATAATC  -0.112
28. GGGAGCGA  -0.0995
29. ACGTAGGA  -0.0907
30. AGAAGGCA  -0.0904
31. AACATCGT  -0.0769
32. CTGCCGCA  -0.0767
33. GTAGCGCA  -0.0734
34. AACGCACT  -0.0716
35. ACGAAATG  -0.0714
36. GGGTAGTA  -0.0701
37. GATCTAAA  -0.0672
38. TAGCGCAA  -0.0466
39. GCATTTAA  -0.0375
40. CTGGGACA  -0.036
41. GCTTAGCC  -0.0322
42. ACGGTCTC  -0.0316
43. AAGGACAA  -0.0278
44. GGGGACGA  -0.0243
45. GATGCTGC  -0.0183
46. CTTTAGAA  -0.0131
47. ACGCTGTA  -0.00987
48. CCTATATA  -0.00968
49. CGCACACC  -0.00955
50. ACATGTGC  -0.00887
51. GAAGTCCA  -0.00424
52. CGGCTTAG  -0.00213
53. AGACACGA  0.0137
54. GCGGCAGC  0.0179
55. GGGGTTGA  0.0304
56. ATTAGTCG  0.0481
57. AATCGAAT  0.0513
58. GCCCAGGA  0.0549
59. ACAACACG  0.0551
60. AAACTTCT  0.0596
61. ATCTACCG  0.065
62. GGGATGCA  0.0836
63. GGCGAAAA  0.0972
64. GATACTCA  0.102
65. CGTTGGCA  0.103
66. AACTACCG  0.103
67. CCGAGCAC  0.122
68. GATAAACC  0.136
69. ACGGCTTA  0.143
70. AGATTTAT  0.148
71. AATTTGTG  0.159
72. CCGAGTGA  0.165
73. GACCTCTC  0.17
74. CCTAACAC  0.175
75. CCATACGG  0.191
76. ACCCGACA  0.197
77. AGCGCCGC  0.198
78. CGGGTCGA  0.198
79. AATGCCGA  0.219
80. CCGGCTAA  0.237
81. CACCCGAA  0.243
82. CGGCTTTC  0.259
83. ATACGGGA  0.271
84. CCATCGCG  0.296
85. ACGGATTG  0.32
86. CTCGGAAG  0.39
